Source: PubChem BioAssay AID686979 (National Center for Advancing Translational Sciences (NCATS), 2013)
In all, about 420,000 compounds went through this assay and about 50,000 (12%) were called active. Inconclusive results, whose numbers are uncertain, are shown with a selection of clear calls. The call rests on the fitted dose curve; in most records, active means well fitted inhibition curve with a large enough effect; inconclusive means small, poorly fitted or top-dose-only effect; inactive means flat fitted curve, though single readings scatter. No potency is given beside an inconclusive call; the fits are too rough.

Assay: qHTS for Inhibitors of human tyrosyl-DNA phosphodiesterase 1 (TDP1): qHTS in cells in presence of CPT; further: nearly all actives have a fitted effect of over 55% in size
Conditions: chicken DT40 Tdp1-/-;hTDP1 cells + 20 nM CPT, ATP luminescence, 48 h; series mostly up to 46.2 µM
Method in brief: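 Chicken DT40 Tdp1-/- cells stably complemented with human TDP1 were seeded at 400 cells/well in medium containing 20 nM camptothecin, exposed to pin-transferred compounds, and grown at 37 °C for at least 48 hr. Viability was read as ATP luminescence.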
Potency means the concentration at half of the fitted maximal effect; tags describe the fitted curve by direction and shape.

Row | SMILES | Potency
1 | O=C(CCS(=O)(=O)c1ccccc1)OCc1ccc([N+](=O)[O-])cc1 | inconclusive [inhibitor, single point]
2 | Cc1cc(C)c2cc(C#N)c(NCCNC(=O)c3ccncc3)nc2c1 | inconclusive [inhibitor, single point]
3 | CCN(CC)S(=O)(=O)c1ccc(NC(=O)c2ccc(N3CCCC3=O)cc2)cc1 | inconclusive [inhibitor, single point]
4 | COc1ccc(C2c3c(n(C)c4ccccc34)C(=O)N2CC(=O)Nc2cc(Cl)ccc2C)cc1 (stereo unspecified) | inconclusive [inhibitor, single point]
5 | COc1ccc(-c2cc3ccccc3oc2=O)cc1NC(=O)c1ccc(Br)o1 | inactive
6 | Cc1ccc(NC(=O)N2CCc3cc(S(=O)(=O)N4CCC(C)CC4)ccc32)cc1F | inconclusive [inhibitor, single point]
7 | O=C1CCC/C1=c1\s/c(=C\c2cccnc2)c(=O)n1-c1ccccc1 | inconclusive [inhibitor, single point]
8 | CCn1ncc(C2=NOC(C(=O)Nc3ccccc3C(=O)OC)C2)c1C (stereo unspecified) | inconclusive [inhibitor, single point]
9 | CCCOC(=O)c1ccc(NC(=O)C(=O)NCCN(CC)CC)cc1 | inactive
10 | Cn1cc(CNCC2CCCO2)c(-c2ccc(Oc3ccccc3)cc2)n1 (stereo unspecified) | inconclusive [inhibitor, single point]
11 | O=C(Nc1cccc(-c2nc3ccccc3c(=O)o2)c1)c1ccccc1 | inconclusive [inhibitor, single point]
12 | COc1ccc(CC(=O)N(Cc2ccccc2)c2ccc(C)cc2)cc1OC | inconclusive [inhibitor, single point]
13 | C/C(=N\NC(=O)c1ccccc1)c1ccccc1Br | active: 0.82 µM
14 | Cc1ccc(S(=O)(=O)N2CC(O)CC2C(=O)OCC(=O)c2ccccc2Cl)cc1C (stereo unspecified) | inactive
15 | Cc1ccc(NC(=O)c2cc(S(=O)(=O)N3CCc4ccccc43)cn2C)cc1 | inconclusive [inhibitor, single point]
16 | C=CCn1c(SCC(=O)Nc2ccc(Br)cc2)nc(O)cc1=O | inactive
17 | O=c1c2c3c(sc2n(CCN2CCCC2)c(=O)n1Cc1ccccc1)CCCCC3 | active: 13 µM
18 | CC[C@@H](C)[C@H]1O[C@]2(CC[C@@H]1C)C[C@@H]1C[C@H](C/C=C(/C)[C@H](O[C@@H]3C[C@H](OC)[C@H](O[C@@H]4C[C@H](OC)[C@@H](O)[C@H](C)O4)[C@H](C)O3)[C@@H](C)/C=C\C=C3CO[C@@H]4[C@H](O)C(C)=C[C@@H](C(=O)O1)[C@]34O)O2 (tested in a mixture with another compound) | active: 11.9 µM
19 | COC(=O)c1c(NC(=O)c2ccccc2C(=O)O)sc2c1CCC2 | inactive
20 | COc1ccc(-c2nc(NCCN(C)C)nc3ccsc23)c(C)c1 | inconclusive [inhibitor, single point]
21 | COc1cccc(CNC(=O)c2cc(S(=O)(=O)N3CCCCCC3)cn2C)c1 | inconclusive [inhibitor, single point]

Row | SMILES | Potency
22 | COc1ccc(-c2ccoc2)cc1[C@H]1[C@H]2C=CC[C@@H](C)[C@@H]2C(=O)N1Cc1ccccc1 | inconclusive [inhibitor, single point]
23 | C[n+]1ccccc1/C=N/O | inactive
24 | COc1ccc(CC(N)c2csc(NC(=O)Nc3ccc(C(C)C)cc3)n2)cc1 (stereo unspecified) | active: 6.51 µM
25 | CCOC(=O)CSc1nc2cc3c(cc2c(=O)n1CCCC(=O)NCCc1ccc(OC)c(OC)c1)OCO3 | inconclusive [inhibitor, single point]
26 | NS(=O)(=O)c1ccc(CNC(=O)c2ccc(NS(=O)(=O)c3cccs3)cc2)cc1 | inactive
27 | O=S(=O)(c1ccccc1C(F)(F)F)N1CCN(c2nc(-c3cccs3)nc3ccccc23)CC1 | active: 12.6 µM
28 | Cc1ccc(CNC(=O)CCCn2nc(C)c3c(C)n(-c4ccccc4)nc3c2=O)cc1 | inconclusive [inhibitor, single point]
29 | CCOC(=O)c1c(NC(=O)CSc2cn(CCNC(=O)c3ccc(OC)c(OC)c3)c3ccccc23)sc2c1CCCC2 | active: 7.31 µM
30 | CCc1cccc(NS(=O)(=O)c2ccc3c(c2)n(C)c(=O)c(=O)n3C)c1 | inconclusive [inhibitor, single point]
31 | CN(C(=O)COC(=O)c1c2c(nc3ccccc13)/C(=C/c1cccc([N+](=O)[O-])c1)CCC2)C1CCS(=O)(=O)C1 (stereo unspecified) | active: 3.26 µM
32 | O=C([C@H]1O[C@@H](n2ccc(=O)[nH]c2=O)[C@H](O)[C@@H]1O)N1CCN(Cc2ccccn2)CC1 | inactive
33 | Cc1cccc(N2CCN(C(=O)c3cc(S(=O)(=O)N4CCCC4)cn3C)CC2)c1C | active: 23.1 µM
34 | Cc1ccc(SCC(=O)O/N=C(\N)c2cccnc2)cc1 | inactive
35 | CCN1CCc2nc3sc(C(=O)N4CCc5ccccc5C4)c(N)c3cc2C1 | inconclusive [inhibitor, single point]
36 | COc1ccc(-c2cc(-c3ccc4c(c3)NC(=O)CO4)nc3c2COc2ccc(F)cc2-3)cc1 | inconclusive [inhibitor, single point]
37 | CCCCOCCCNC(=O)C[C@@H]1C[C@@]2(C(=O)OCC)CCCC=C2N(Cc2ccc(Cl)cc2Cl)C1=O | inconclusive [inhibitor, single point]
38 | COc1ccccc1NC(=O)C/C(C)=N/NC(=O)C12CC3CC(CC(C3)C1)C2 | inconclusive [inhibitor, single point]
39 | NNC(=O)c1ccc(Cn2cc(Br)c(N)n2)cc1 | inactive
40 | Cc1ccc(CC2(C)C(=O)Nc3ccc(OC(F)(F)F)cc32)cc1 (stereo unspecified) | inconclusive [inhibitor, single point]
41 | COc1ccc(-n2ncc3c2CC(C)(C)CC3NC(=O)CSc2ccccn2)cc1 (stereo unspecified) | inconclusive [inhibitor, single point]
